# The supplement of paper PMC8728848
# The other results are listed elsewhere or left out.
# Legend:
# Test in all cases: glycan array binding signal (z-score within array); higher = stronger binding
# Conditions in all cases: glycan notation: IUPAC condensed, linker removed
# [1] = molecular target: Gal(b1-3)[Fuc(a1-4)]GlcNAc(b1-3)Gal(b1-4)GlcNAc
# Outline: (§1)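 Negative Z-scores can be read as non-binding. The Z-score is calculated within each array and then averaged across arrays of one protein sequence at different concentrations or buffers and across linkers. Arrays, 3228 in all, were curated from the Consortium for Functional Glycomics database and kept only where the protein sequence was available.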
# [2] = molecular target: Gal(b1-3)[Fuc(a1-4)]GlcNAc(b1-3)Gal(b1-4)[Fuc(a1-3)]GlcNAc
# Outline: as §1
# [3] = molecular target: Gal(b1-3)[GlcNAc(b1-6)]GalNAc
# Outline: as §1
# [4] = molecular target: Gal(b1-3)[Neu5Ac(a2-6)]GalNAc
# Outline: as §1
# [5] = molecular target: Gal(b1-3)[Neu5Ac(a2-6)]GlcNAc(b1-6)Gal(b1-4)Glc
# Outline: as §1
# [6] = molecular target: Gal(b1-3)[Neu5Ac(b2-6)]GalNAc
# Outline: as §1
# [7] = molecular target: Gal(b1-4)Gal
# Outline: as §1
# [8] = molecular target: Gal(b1-4)GalNAc(a1-3)[Fuc(a1-2)]Gal(b1-4)GlcNAc
# Outline: as §1
# [9] = molecular target: Gal(b1-4)GalNAc(b1-3)[Fuc(a1-2)]Gal(b1-4)GlcNAc
# Outline: as §1
# [10] = molecular target: Gal(b1-4)Glc
# Outline: as §1
# [11] = molecular target: Gal(b1-4)Glc6S
# Outline: as §1
# [12] = molecular target: Gal(b1-4)GlcNAc
# Outline: as §1
# [13] = molecular target: Gal(b1-4)GlcNAc(a1-6)Gal(b1-4)GlcNAc
# Outline: as §1
# [14] = molecular target: Gal(b1-4)GlcNAc(b1-2)Man
# Outline: as §1
# [15] = molecular target: Gal(b1-4)GlcNAc(b1-2)Man(a1-3)Man(b1-4)GlcNAc(b1-4)GlcNAc
# Outline: as §1
# [16] = molecular target: Gal(b1-4)GlcNAc(b1-2)Man(a1-3)[Gal(b1-4)GlcNAc(b1-2)Man(a1-6)]Man(b1-4)GlcNAc(b1-4)GlcNAc
# Outline: as §1
# [17] = molecular target: Gal(b1-4)GlcNAc(b1-2)Man(a1-3)[Gal(b1-4)GlcNAc(b1-2)Man(a1-6)]Man(b1-4)GlcNAc(b1-4)[Fuc(a1-6)]GlcNAc
# Outline: as §1
# [18] = molecular target: Gal(b1-4)GlcNAc(b1-2)Man(a1-3)[Gal(b1-4)GlcNAc(b1-2)][GlcNAc(b1-4)]Man(b1-4)GlcNAc(b1-4)GlcNAc
# Outline: as §1
# [19] = molecular target: Gal(b1-4)GlcNAc(b1-2)Man(a1-3)[GlcNAc(b1-2)Man(a1-6)]Man(b1-4)GlcNAc(b1-4)GlcNAc
# Outline: as §1
# [20] = molecular target: Gal(b1-4)GlcNAc(b1-2)Man(a1-3)[Man(a1-6)]Man(b1-4)GlcNAc(b1-4)GlcNAc
# Outline: as §1
# [21] = molecular target: Gal(b1-4)GlcNAc(b1-2)Man(a1-6)Man(b1-4)GlcNAc(b1-4)GlcNAc
# Outline: as §1
# [22] = molecular target: Gal(b1-4)GlcNAc(b1-2)Man(a1-6)[GlcNAc(b1-2)Man(a1-3)]Man(b1-4)GlcNAc(b1-4)GlcNAc
# Outline: as §1
# [23] = molecular target: Gal(b1-4)GlcNAc(b1-2)Man(a1-6)[Man(a1-3)]Man(b1-4)GlcNAc(b1-4)GlcNAc
# Outline: as §1
# [24] = molecular target: Gal(b1-4)GlcNAc(b1-2)[Gal(b1-4)GlcNAc(b1-4)]Man(a1-3)[Gal(b1-4)GlcNAc(b1-2)Man(a1-6)]Man(b1-4)GlcNAc(b1-4)GlcNAc
# Outline: as §1
# [25] = molecular target: Gal(b1-4)GlcNAc(b1-2)[Gal(b1-4)GlcNAc(b1-4)]Man(a1-3)[Gal(b1-4)GlcNAc(b1-2)[Gal(b1-4)GlcNAc(b1-6)]Man(a1-6)]Man(b1-4)GlcNAc(b1-4)GlcNAc
# Outline: as §1
# [26] = molecular target: Gal(b1-4)GlcNAc(b1-2)[Gal(b1-4)GlcNAc(b1-4)]Man(a1-3)[GlcNAc(b1-4)][Gal(b1-4)GlcNAc(b1-2)Man(a1-6)]Man(b1-4)GlcNAc(b1-4)GlcNAc
# Outline: as §1
# [27] = molecular target: Gal(b1-4)GlcNAc(b1-2)[Gal(b1-4)GlcNAc(b1-4)]Man(a1-3)[GlcNAc(b1-4)][Gal(b1-4)GlcNAc(b1-2)[Gal(b1-4)GlcNAc(b1-6)]Man(a1-6)]Man(b1-4)GlcNAc(b1-4)GlcNAc
# Outline: as §1
# [28] = molecular target: Gal(b1-4)GlcNAc(b1-2)[Gal(b1-4)GlcNAc(b1-6)]Man(a1-6)[Gal(b1-4)GlcNAc(b1-2)Man(a1-3)]Man(b1-4)GlcNAc(b1-4)GlcNAc
# Outline: as §1
# [29] = molecular target: Gal(b1-4)GlcNAc(b1-2)[Gal(b1-4)GlcNAc(b1-6)]Man(a1-6)[GlcNAc(b1-4)][Gal(b1-4)GlcNAc(b1-2)Man(a1-3)]Man(b1-4)GlcNAc(b1-4)GlcNAc
# Outline: as §1
# [30] = molecular target: Gal(b1-4)GlcNAc(b1-3)Gal(b1-3)GlcNAc
# Outline: as §1
# [31] = molecular target: Gal(b1-4)GlcNAc(b1-3)Gal(b1-4)Glc
# Outline: as §1
# [32] = molecular target: Gal(b1-4)GlcNAc(b1-3)Gal(b1-4)GlcNAc
# Outline: as §1
# [33] = molecular target: Gal(b1-4)GlcNAc(b1-3)Gal(b1-4)GlcNAc(b1-3)Gal(b1-4)GlcNAc
# Outline: as §1
# [34] = molecular target: Gal(b1-4)GlcNAc(b1-3)Gal(b1-4)[Fuc(a1-3)GlcNAc(b1-6)]Gal(b1-4)Glc
# Outline: as §1
# [35] = molecular target: Gal(b1-4)GlcNAc(b1-3)Gal(b1-4)[Fuc(a1-3)]GlcNAc(b1-3)Gal(b1-4)[Fuc(a1-3)]GlcNAc
# Outline: as §1
# [36] = molecular target: Gal(b1-4)GlcNAc(b1-3)GalNAc
# Outline: as §1
# [37] = molecular target: Gal(b1-4)GlcNAc(b1-3)[Gal(b1-4)GlcNAc(b1-6)]Gal(b1-4)GlcNAc
# Outline: as §1
# [38] = molecular target: Gal(b1-4)GlcNAc(b1-3)[Gal(b1-4)GlcNAc(b1-6)]GalNAc
# Outline: as §1
# [39] = molecular target: Gal(b1-4)GlcNAc(b1-3)[GlcNAc(b1-6)]Gal(b1-4)GlcNAc
# Outline: as §1
# [40] = molecular target: Gal(b1-4)GlcNAc(b1-6)Gal(b1-4)GlcNAc
# Outline: as §1
# [41] = molecular target: Gal(b1-4)GlcNAc(b1-6)GalNAc
# Outline: as §1
# [42] = molecular target: Gal(b1-4)GlcNAc(b1-6)[Gal(b1-3)]GalNAc
# Outline: as §1
# [43] = molecular target: Gal(b1-6)Gal
# Outline: as §1
# [44] = molecular target: Gal3S(b1-3)GalNAc
# Outline: as §1
# [45] = molecular target: Gal3S(b1-3)GlcNAc
# Outline: as §1
binder,measurement,setting,value
"3FTT (Staphylococcus aureus), Q5HCZ5 (protein) MTEKEKMLAEKWYDANFDQYLINERARAKDICFELNHTRPSATNKRKELIDQLFQTTTDNVSISIPFDTDYGWNVKLGKNVYVNTNCYFMDGGQITIGDNVFIGPNCGFYTATHPLNFHHRNEGFEKAGPIHIGSNTWFGGHVAVLPGVTIGEGSVIGAGSVVTKDIPPHSLAVGNPCKVVRKIDNDLPSETLNDETIK",glycan array binding signal (z-score),[1],-0.017
same,glycan array binding signal (z-score),[2],-0.198
same,glycan array binding signal (z-score),[3],-0.192
same,glycan array binding signal (z-score),[4],-0.236
same,glycan array binding signal (z-score),[5],0.085
same,glycan array binding signal (z-score),[6],-0.136
same,glycan array binding signal (z-score),[7],0.15
same,glycan array binding signal (z-score),[8],-0.017
same,glycan array binding signal (z-score),[9],-0.055
same,glycan array binding signal (z-score),[10],-0.098
same,glycan array binding signal (z-score),[11],-0.204
same,glycan array binding signal (z-score),[12],-0.074
same,glycan array binding signal (z-score),[13],0.176
same,glycan array binding signal (z-score),[14],0.22
same,glycan array binding signal (z-score),[15],0.088
same,glycan array binding signal (z-score),[16],-0.246
same,glycan array binding signal (z-score),[17],0.077
same,glycan array binding signal (z-score),[18],-0.1
same,glycan array binding signal (z-score),[19],-0.216
same,glycan array binding signal (z-score),[20],-0.261
same,glycan array binding signal (z-score),[21],0.153
same,glycan array binding signal (z-score),[22],-0.191
same,glycan array binding signal (z-score),[23],0.017
same,glycan array binding signal (z-score),[24],-0.288
same,glycan array binding signal (z-score),[25],-0.262
same,glycan array binding signal (z-score),[26],-0.023
same,glycan array binding signal (z-score),[27],0.039
same,glycan array binding signal (z-score),[28],-0.241
same,glycan array binding signal (z-score),[29],-0.316
same,glycan array binding signal (z-score),[30],0.053
same,glycan array binding signal (z-score),[31],0.019
same,glycan array binding signal (z-score),[32],-0.015
same,glycan array binding signal (z-score),[33],0.021
same,glycan array binding signal (z-score),[34],-0.066
same,glycan array binding signal (z-score),[35],-0.058
same,glycan array binding signal (z-score),[36],-0.132
same,glycan array binding signal (z-score),[37],0.117
same,glycan array binding signal (z-score),[38],-0.141
same,glycan array binding signal (z-score),[39],-0.193
same,glycan array binding signal (z-score),[40],-0.189
same,glycan array binding signal (z-score),[41],-0.111
same,glycan array binding signal (z-score),[42],-0.089
same,glycan array binding signal (z-score),[43],-0.004
same,glycan array binding signal (z-score),[44],-0.317
same,glycan array binding signal (z-score),[45],-0.115
